Results taken from PMC9675814, “DNA mechanical flexibility controls DNA potential to activate cGAS-mediated immune surveillance” (Nature Communications, 2022).

Target: the molecule itself
Assay: native gel or EMSA; Native PAGE of full-length WT and R222A mcGAS in loading buffer without β-mercaptoethanol; Coomassie blue staining (SDS PAGE with or without β-mercaptoethanol alongside)

B1: Full length mouse cGAS R222A (enzyme)
chain: not shown
notes: mouse cyclic GMP-AMP synthase (cGAS), full length (NM_173386.5), residue substitution made by site mutation of pET-28a-mcGAS; also called R222A mcGAS; source: E. coli BL21 (DE3), purified (Ni Sepharose 6 Fast Flow)
  binding result: binds
